Assay [1] concerns fludioxonil-resistant Fusarium pseudograminearum (FR). Nature of the assay: microbe, parasite or virus in culture. The settings on record: for EC50: Fusarium pseudograminearum, 72 h; for ATI: ZJS178 as standard reagent, FR strain. The text has this: (§1) Test object: fludioxonil-resistant (FR) and fludioxonil-sensitive (FS) Fusarium pseudograminearum, isolated from the field and identified by the laboratory and preserved.
(§2) Test reagents: compound ZJS178 synthesized by Example 1; fludioxonil (provided by Zhejiang Research Institute of Chemical Industry).
(§3) Test method: refer to “Agricultural Industry Standard of the People's Republic of China NY/T 1156.2-2006” mycelial growth rate method. Five doses of each reagent were set according to the active ingredient content. The above-mentioned Fusarium pseudograminearum was inoculated on a PDA medium. When the colony grew to ⅔ of the culture dish, a fungicidal block at the edge of the colony was made by a punch with a diameter of 5 mm. The fungicidal block was transferred to the center of the pre-prepared drug-containing PDA medium using an inoculating needle, and then placed in a 25° C. incubator for 3 days. The diameter in cm of each treated colony was measured with a caliper using a cross method, and the corrected inhibition percentage was calculated. EC50 values for each reagent were then calculated using linear regression analysis between the probability of inhibition values and the log of the series of concentrations, repeated 4 times per treatment. The compound ZJS178 was set as the standard reagent, and the co-toxicity coefficient (CTC) was calculated according to the following formulas.
(§4) A CTC value of less than 80 indicates an antagonistic effect; A CTC value of 80-120 indicates an additive effect; A CTC value of greater than 120 indicates a synergistic effect.

Assay [2] concerns fludioxonil-sensitive Fusarium pseudograminearum (FS). Nature of the assay: microbe, parasite or virus in culture. The settings on record: for EC50: Fusarium pseudograminearum, 72 h; for ATI: ZJS178 as standard reagent, FS strain.
Description: as §1, §2, §3, §4

Structures are written as SMILES.

As a reminder, the EC50 is the midpoint of the concentration-response curve. Turning to `N#Cc1c[nH]cc1-c1cccc2c1OC(F)(F)O2` [Fludioxonil (B), 4-(2,2-difluoro-1,3-benzodioxol-4-yl) pyrrole-3-carbonitrile, reference compound], in assay [1], the EC50 was 18 µg/mL and the ATI is reported as 0.21. Also, in assay [2], the EC50 is 0.0426 µg/mL and the ATI is on record as 75.82.

In the case of `CCOC(=O)/C(C#N)=C(\N)c1ccc(N(C)CC)cc1` [ZJS178 (A), ethyl 2-cyano-3-amino-3-[4-(N-ethyl-N-methylamino)phenyl]acrylate], in assay [1], the EC50 was found to be 0.038 µg/mL and the ATI turned out to be 100.00. In assay [2], the EC50 stood at 0.0323 µg/mL and the ATI is on record as 100.00.

The values above are taken from patent publication US20260026499A1 (priority 2022, published 2026).
